Assay results from the supplement of paper PMC11417369.
This is one part of the list.

The sequences below were run on PfSIP2 AP2 domain 1 (GST-tagged) (assay: gcPBM binding intensity (ln(normalized median fluorescence intensity)); higher = stronger DNA binding).
Method in brief: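 The highest Masliner-normalised natural-log median intensity across replicate spots of either probe orientation is reported as binding intensity. GST-tagged P. falciparum DNA-binding domains expressed in E. coli were applied for 1 h to an Agilent 4 × 180k array of primer-extended double-stranded 36-bp intergenic genomic probes plus negative controls, and bound protein was detected with Alexa488 anti-GST antibody and scanned at 488 nm.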

| Sequence | gcPBM binding intensity (ln) |
| --- | --- |
| TAATTATATTCACTTGCTATATAAATTATATATATT [CACACA_negctrl_site526] | 6.94 |
| ATACACACTCAAAAAAGTACTTAACTACATGAATTG [XGTACX_site6366] | 7.08 |
| GTATATATATATATATGCAAATGTATAAATCTACAT [CACACA_negctrl_site546] | 7.35 |
| AAGAAAAAAATATATGTTTATTTACTTTAATAATTT [TGCATGCA_negctrl_site168] | 6.7 |
| TATATATAAATATGCTGTACGTTTTAATACGTTAAG [XGTACX_site2378] | 7.24 |
| GATAAATTAAAACACACACACATATATATATATATA [CACACA_site3962] | 9.63 |
| AAAAAAATAGTCTTCTTGCACTTTTTAATTTATTTT | 7.3 |
| TTATAATAAAATGAATATATATAATTTAAAATATTT [CACACA_negctrl_site1651] | 6.83 |
| AAAAAAAGTTATATTACACACTTTATTCGTTAACTT [CACACA_site3013] | 6.7 |
| ATATTTATGAAGTTCACACATATATATATATATATA [CACACA_site5954] | 9.55 |
| ACAACAATATTTGAATGTACTCTATTTTCGTTGTTC [XGTACX_site593] | 6.96 |
| AAGGAAAACAATAGGTGTACCAAACGTCCTAGGAAC [XGTACX_site5732] | 6.7 |
| TTTCTTCATTTTTTCACACATAAGAAAATATAATCA [CACACA_site4275] | 7.3 |
| TAAAAAAATAAAATTACACACATATATAAATATATA [CACACA_site2620] | 6.75 |
| AAAAAAGCAATATGATGTACATTTACTTTGTGAAAG [XGTACX_site4450] | 6.84 |
| CTAGGTATGCTTTAAACATGCAAAAATACAAATTAC [TGCATGCA_site239] | 6.87 |
| ATATATAAATATATTTGTACATATAATATGTATTAT [XGTACX_site8820] | 7.24 |
| TTTTGTTATAATAAAGTGCATTTAGTCGGGTTACAA [GTGCAC_site9779] | 9.07 |
| AAATATTATAAAAAGGTGCATTTTTATTATATGAGT | 11 |
| AATTTAAAAAAAATCACACACAGAAAAAAAAAAAAA [CACACA_site2322] | 6.93 |
| ATATATGTTTTTATATGTACTTATAATGTGTGTATA [XGTACX_site5165] | 7.47 |
| TTCTGACCAATGCTATAAAATAATACAAAAGAAAAA [GTGCAC_negctrl_site3] | 7.25 |

| Sequence | gcPBM binding intensity (ln) |
| --- | --- |
| TGAAGAGGAAACAAACAAAATGAATAATTAAAAAGG [CACACA_negctrl_site1601] | 7.28 |
| TATATCCACATTTTTAGTACTTAAAAATAAATAAAC [XGTACX_site3826] | 7.37 |
| TTATAATCAATGAATACACACATATATTTCATTAAT [CACACA_site5909] | 6.82 |
| TAATAATAGAGACACACACACATAGACATATAAATA [CACACA_site6729] | 6.97 |
| ATCTATGAAAAAGGTACATGCAATAAAGAAACATAT [TGCATGCA_site805] | 7.15 |
| TTATACTATTTTTATACATGCATTTCTATATATTTT [TGCATGCA_site316] | 7.38 |
| TTCAAAATAAAAAATTCACACACATATATATATATA [CACACA_site8653] | 9.18 |
| ATTTATTAAATTTATAGTACTCAAAGATTTTTATTT [XGTACX_site6661] | 6.79 |
| AAATAAAACAATTAACGTACAAGCATATATATATAT [XGTACX_site8508] | 9.4 |
| TATGTATAATTATTTTGTACTTATTAAATTTTTTTT [XGTACX_site5413] | 6.67 |
| TATATATATATTATATGTACACAAGGAAATATGCAT [XGTACX_site5637] | 8.78 |
| AAATAAAAAAAAATAGCACACATAAATATATTATAT [CACACA_site8155] | 6.86 |
| ATTATTCATTTATGTAGTACATTTTAATACATTTAA [XGTACX_site3599] | 7.23 |
| AAGAAAAATTTAAACTGTACTTGTTTTCCAATGAAC [XGTACX_site4443] | 6.95 |
| AAAAAAAAAAAAGTTACACACAAATAAAATATTTGG [CACACA_site694] | 7.13 |
| ATAAAAAAAAATAAATGTACAAATTAACAAAATAAT [XGTACX_site5048] | 7.22 |
| AATCACCAAATATGTACACACCTTAACATGTTTATA [CACACA_site5180] | 7.45 |
| ATCTAAACAAATAATACACACAATAAAATAGGAAGA [CACACA_site4072] | 7.34 |
| TGTGAATAAATAAGCACACATAAACCCATATATAAA [CACACA_site4103] | 7.06 |
| TAATATTTACATATTACACACACGTATTATTAAATA [CACACA_site6340] | 6.92 |
| TATTTTTTAAAAATGGGTACACATAAATAAATAAAT [XGTACX_site7643] | 7.56 |
| AAAATATGTAGACACATACACACATATATATATATA [CACACA_site1221] | 9.8 |
